Assay results reported in the supplement of paper PMC10126150.
Values marked as one replicate rest on one cluster of the flow cell; about a third of the high ones do not repeat.

System: ATP
Assay: switch fluorescence ratio, 500 uM ATP over buffer (Cy3 cluster intensity, sum of 5 cycles each) (fold (ratio)); higher = stronger signal-on switching upon ATP binding; sequences stand for … in TCGTCGGCAGCGTCAGATGTGTATAAGAGACAGTTTTTTTTTTTTTTTTTTTTTTTTT…TC
Conditions: aptamer strand: ATP DNA aptamer (quencher-CACCTGGGGGAGTATTGCGGAGGAAGG + anchor), 100 nM annealed; ATP concentration: 500 uM; one replicate
Outline: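 Values give the fluorescence ratio for each switch-domain sequence, averaged from per-cluster ratios of summed target-cycle to summed buffer-cycle Cy3 intensity. The Cy3-labelled switching-strand clusters sat on a modified Illumina MiSeq flow-cell, were annealed to 100 nM quencher-labelled ATP aptamer, and were imaged in selection buffer, then after 15 min with 500 uM ATP at 22 °C. Five cycles ran with NaOH stripping and re-annealing between them, and clusters outside 100-1000 RFU were excluded.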
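Further: ATP exposure 15 min at 22 °C before imaging.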

Row | Sequence | switch fluorescence ratio
1 | CGGGTCTATG | 0.978
2 | GCTGTAACAA | 0.994
3 | TGATCTGTG | 0.959
4 | TTTGGGCTCG | 1.03
5 | TGATTGAGAT | 0.952
6 | TGCTAGGAGA | 1
7 | CAGTCAAATC | 1.11
8 | AACCAATGCA | 1.05
9 | CGTACCGTAC | 1.18
10 | ATGAAGTTGG | 0.995
11 | TCGATGGGCC | 1.01
12 | ATCAAATTC | 1.04
13 | GCTGGTGTCG | 1
14 | GTCTCGCGCA | 1.17
15 | CGAAAATCAT | 1.02
16 | GGTTTAACAC | 1.02
17 | TGCAGAATCC | 1.03
18 | CCGCGGATTG | 0.998
19 | CAGAGACGTT | 1.05
20 | AACTAGAGAG | 1.04
21 | CTCGGCAAGG | 2.53
22 | AGATTGCCAG | 1.03
23 | TGCTTTAGTC | 1.01
24 | GCTCTATGGG | 0.99
25 | CGTGTTCGGT | 0.996
26 | GGGCATGTAT | 1.01

Row | Sequence | switch fluorescence ratio
27 | TTGCGTAAAT | 1.1
28 | CGGCGATGGC | 1.05
29 | GGCACAGCTT | 0.992
30 | CCGGACGAAA | 5
31 | TTCTGGGGTT | 1.05
32 | AGAGCCCCCA | 1.03
33 | CATGGGGGG | 0.978
34 | GACCCTGTCG | 0.991
35 | GTGGTGTGAA | 1
36 | AATGTTATCA | 0.978
37 | TCTTTTTATT | 0.943
38 | AGTGTGGTAT | 0.985
39 | GCGCTCTAGA | 0.917
40 | CTTCGTCAGT | 1.34
41 | CATTGGCCGC | 1
42 | AAAATCAGGG | 1.03
43 | CGCCTTGAAC | 1.08
44 | GACCCTAAGT | 1.01
45 | CACACTATTA | 1.05
46 | TGCTACCAT | 1.03
47 | TAAATCGAAA | 1
48 | ACGTAAGCCT | 1.05
49 | ACTAAGAGCG | 0.982
50 | TATTAGATCC | 0.969
51 | CGTCAAGGCT | 1.04
52 | AGGCAAACGA | 1.19

Row | Sequence | switch fluorescence ratio
53 | GGTGCTAGTC | 1.01
54 | TTATGCGGAA | 1.02
55 | GTTCCGAGCA | 2.87
56 | TTCGGTCCG | 1.01
57 | ACGGTCTGCA | 1.05
58 | ATGCTTCCAC | 1.06
59 | CTGTAATCTT | 1.05
60 | CCCATGAGTT | 1.01
61 | GAGCATAAGG | 1.06
62 | CTCAGATCAT | 0.968
63 | AAGTCGGAGA | 1.41
64 | GGCATATTCG | 0.937
65 | TAAATGT | 1.01
66 | CCGTGAGGCT | 1.08
67 | GCTAGTTTTA | 0.946
68 | ATGGTATCTA | 1.02
69 | TCGCTTATAA | 1.71
70 | GGCGTATCTT | 0.988
71 | GGTCAAGATC | 1.01
72 | GCGTGAAGCT | 0.937
73 | ATATTCATGG | 0.99
74 | TCTGTGAGGC | 1.09
75 | GAATGCAATG | 1.09
76 | CGTTTTTATC | 0.981
77 | CTGGGCAGGA | 1.06
78 | CGCAGAACTG | 1.11

Row | Sequence | switch fluorescence ratio
79 | CGGTGTAGTG | 0.999
80 | GATGTGAACT | 1.03
81 | TTGGCACACG | 0.968
82 | AATGAGTGA | 0.965
83 | TTTCCGGC | 1.07
84 | AAAGGTCTGT | 0.992
85 | TAATTAGTAG | 0.954
86 | CTCCTGAAAT | 1.24
87 | GCCGTAGCTT | 1.07
88 | TGTAGTGGCT | 0.999
89 | GTGGCCTCGT | 1.03
90 | TTGTTTTAAG | 1.04
91 | GCATGCTCTT | 1.05
92 | CAAAAATTGT | 1.04
93 | CAAGGTAGTG | 0.981
94 | ATCAGACAAC | 1.04
95 | GTGCGCTTTC | 1.02
96 | AAATGCTAGA | 1.02
97 | ATTAACATTG | 0.999
98 | ACAGGGCTGT | 1
99 | TCGGTGTGG | 0.916
100 | GTGAACTGAG | 1.01
101 | GCCGCACCCG | 1.45
102 | TTAGACTACG | 1.08
103 | GATGCCATTT | 1.04
104 | TTCCGGTGTA | 1.04

Row | Sequence | switch fluorescence ratio
105 | CTTAATAACG | 1.03
106 | AGAAAGTCTT | 1.01
107 | GTGGGGCTTC | 0.969
108 | GCTCGCGGGG | 1.02
109 | AACCGGGGCA | 1.05
110 | TGCAGTAAAA | 1.01
111 | AAGCACAGA | 1.13
112 | AAGTGGTGGA | 0.986
113 | CTGTCTATGT | 0.984
114 | CAGTCTACG | 1.04
115 | GTAAGGCTGT | 0.98
116 | GACTTCCGCC | 3.84
117 | TACGTCTAGT | 0.985
118 | GCAGGCGAAT | 0.983
119 | GCGTGTGTG | 1.05
120 | GTTGGAACAT | 0.985
121 | CGGGCAACG | 1.01
122 | CGGCACAGAC | 2.39
123 | CTGTCCACCC | 1.04
124 | CCATGGAATG | 1.02
125 | ATAGGAACT | 1
126 | CGGCAAGTTG | 0.963
127 | CGGGCGTTGA | 0.947
128 | TTTAAGAAAA | 1.03
129 | TCGCAGTTAG | 1.49
130 | TCTGAGGTCC | 1.05

Row | Sequence | switch fluorescence ratio
131 | AGAGGTCAAG | 1.01
132 | CGCCCAGTTT | 1.11
133 | GCCGGCATGC | 1.03
134 | GTCGACCCGA | 1.02
135 | CAGCGTAGTA | 1.01
136 | CACGAGGATC | 1.04
137 | CACGACACAA | 1.55
138 | ACAGACG | 1.02
139 | CTCAGGTTTT | 0.986
140 | TGACATTCCG | 1.03
141 | GTGTGGCC | 0.977
142 | GTGTGGTGGC | 0.905
143 | TCCGTATACG | 1.03
144 | CAATCACTTG | 1.06
145 | GGTCACAAAG | 0.969
146 | TAGAAAACAT | 1.01
147 | ATAGGCGGG | 1.04
148 | CTTCCCCAAC | 1.93
149 | GGGGGTAGG | 1.1
150 | CTGCCCCTTA | 1
151 | CTCGGCCGGA | 0.964
152 | TGTTGTCGGA | 1.09
153 | ATCATTGGCA | 0.975
154 | CTGAGCAAGG | 2.51
155 | CAAAGTTTTG | 1.02
156 | GGAGCTATTG | 1.12

Row | Sequence | switch fluorescence ratio
157 | AAAGGAAGGC | 1.02
158 | GCTTTATGGT | 0.996
159 | TAATGGTAG | 0.966
160 | TTTACTGGGA | 1.01
161 | GCGTGGAGAC | 1.11
162 | AAAATTGAAC | 1.01
163 | CGGCTTCCGG | 1.02
164 | ACGATTTGTG | 0.997
165 | TTAAGAACTT | 0.994
166 | GGTGGGCTAC | 1.02
167 | GTGACTTGCT | 0.975
168 | CTTTTAGACT | 0.911
169 | TACCTGTG | 1.05
170 | TGCCTTAATT | 1.01
171 | GTGTTGTCAG | 0.993
172 | TCTAGTATGG | 1
173 | GCAATGCAAC | 1.47
174 | ATACTATCA | 1.05
175 | AGTCCTAAGC | 1.05
176 | TAATATTCGG | 0.984
177 | ATAACGAGGA | 1.02
178 | CTAAAATGGG | 1.02
179 | CAAATATTGA | 0.999
180 | TGTGGATATA | 1.01
181 | CAACCTCTTG | 1.03
182 | ATTTCTGGTT | 0.944

Row | Sequence | switch fluorescence ratio
183 | ATGGCATAAT | 0.983
184 | GCATTTTACT | 1.08
185 | GGATGCGGAT | 1.06
186 | ATAGATCCCC | 0.986
187 | GGTTTCAATG | 1.03
188 | CGAGAGGTCA | 0.978
189 | CGTGTTATAA | 0.957
190 | TGGGTCGGC | 1.03
191 | AATGCCCTGC | 0.979
192 | CATGTTGAG | 1.01
193 | GGGAAATCAA | 1.01
194 | CCAACACGCC | 1.27
195 | GTTCTTACCT | 1.19
196 | AACGATCGCC | 1.13
197 | GTTGGGGTCT | 0.995
198 | TCGTTTATTC | 0.994
199 | AGTGGAGAAC | 1.03
200 | GACGAGTCTG | 0.989
201 | CGGTGGATTG | 1.02
